# Experimental data as given in the antibiotic and cytotoxicity screens of Wong et al. (2023).
# The other results are listed elsewhere or left out.
# Test system: HSkMC (human skeletal muscle cells)
# Test: cytotoxicity call (relative viability < 0.9)
# Conditions: 10 µM
row,SMILES,cytotoxicity call
1,CCCNC(=O)c1cc2c(c(-c3cccc(-c4cc5ccccc5o4)c3)n1)[C@@H](CCO)N(C(=O)NC(C)C)C2,inactive
2,CO[C@@H]1CN(C)C(=O)c2ccc(NC(=O)NC(C)C)cc2OC[C@@H](C)N(Cc2ccc(-c3ccccn3)cc2)C[C@H]1C,inactive
3,C[C@@H]1CN([C@H](C)CO)S(=O)(=O)c2ccc(C#CCN(C)C)cc2O[C@@H]1CN(C)Cc1ccccn1,inactive
4,C[C@@H]1CN([C@@H](C)CO)C(=O)c2cc(NC(=O)CCCCCC(=O)Nc3ccccc3N)ccc2O[C@H]1CN(C)S(=O)(=O)c1cn(C)cn1,inactive
5,COCC(=O)N1C[C@@H](C)[C@@H](OC)CN(C)C(=O)c2ccc(NC(=O)c3cc(C)on3)cc2OC[C@@H]1C,inactive
6,COc1ccc(NC(=O)N(C)C[C@@H]2OCCCC[C@@H](C)Oc3ccc(NS(=O)(=O)c4cccs4)cc3C(=O)N([C@H](C)CO)C[C@H]2C)cc1,inactive
7,CCCN(C)C[C@H]1OCCCC[C@@H](C)Oc2ccc(NC(=O)Nc3ccc4c(c3)OCO4)cc2C(=O)N([C@H](C)CO)C[C@@H]1C,inactive
8,CN(C)CC(=O)N1[C@@H]2c3ccc(C4=CCCC4)c(=O)n3C[C@H]1[C@H](CO)[C@H]2C(=O)NCC1CC1,inactive
9,Cc1ccc(S(=O)(=O)N(C)C[C@H]2Oc3c(NS(=O)(=O)c4cccs4)cccc3C(=O)N([C@H](C)CO)C[C@@H]2C)cc1,inactive
10,C[C@@H]1CCCCO[C@@H](CN(C)Cc2ccc(Cl)c(Cl)c2)[C@@H](C)CN([C@@H](C)CO)C(=O)c2cc(NS(=O)(=O)c3ccc(Cl)cc3)ccc2O1,active

# Test system: HepG2
# Test: cytotoxicity call (relative viability < 0.9)
# Conditions: 10 µM
row,SMILES,cytotoxicity call
1,Cc1noc(C)c1NC(=O)Nc1ccc2c(c1)C(=O)N([C@@H](C)CO)C[C@H](C)[C@@H](CN(C)Cc1ccc(Cl)c(Cl)c1)O2,inactive
2,C[C@@H]1CCCCO[C@@H](CN(C)C(=O)c2ccccc2)[C@H](C)CN([C@H](C)CO)C(=O)c2cc(NC(=O)Nc3ccc(C(F)(F)F)cc3)ccc2O1,inactive
3,C[C@H]1CN([C@@H](C)CO)C(=O)Cc2cc(NS(=O)(=O)c3ccc(Cl)cc3)ccc2O[C@H]1CN(C)S(=O)(=O)c1cn(C)cn1,inactive
4,C[C@H](CO)N1C[C@H](C)[C@@H](CN(C)S(=O)(=O)c2ccc(F)cc2)Oc2ccc(N(C)C)cc2CC1=O,inactive
5,C[C@@H]1CCCCO[C@@H](CN(C)Cc2ccc(C(=O)O)cc2)[C@H](C)CN([C@@H](C)CO)C(=O)c2cc(NS(=O)(=O)c3cccs3)ccc2O1,inactive
6,COc1ccc2nccc(Cl)c2c1,inactive
7,C[C@H](CO)N1C[C@H](C)[C@@H](CN(C)C(=O)NC2CCCCC2)Oc2ccc(NS(C)(=O)=O)cc2C1=O,inactive
8,I.[KH],inactive
9,C[C@@H]1CN([C@H](C)CO)C(=O)Cc2cc(NC(=O)Nc3ccccc3)ccc2O[C@@H]1CN(C)Cc1ccc(Oc2ccccc2)cc1,active
10,C[C@H](CO)N1C[C@H](C)[C@H](CN(C)C(=O)Nc2cccc(Oc3ccccn3)c2)OCc2cn(nn2)CCCC1=O,inactive
11,CCCN(C)C[C@H]1Oc2cc(C#Cc3ccc(OC)cc3)ccc2S(=O)(=O)N([C@H](C)CO)C[C@H]1C,inactive
12,C=CCOC(=O)[C@H]1[C@@H]2C(=O)O[C@@H](c3ccccc3)[C@@H](c3ccccc3)N2[C@@H](c2ccc(OCCOC(=O)[C@@H]3C[C@@H]4C(=O)NCC(=O)N4[C@@H]3c3cccc(OCCO)c3)cc2)[C@]12C(=O)Nc1ccccc12,inactive
13,CCCn1ncnc1[C@@H](C)N,inactive
14,C[C@@H]1CN([C@H](C)CO)C(=O)c2cccc(NC(=O)Nc3ccc4c(c3)OCO4)c2O[C@H]1CN(C)Cc1ccc(C(F)(F)F)cc1,active
15,COc1ccc2c3c(n(c2c1)C)[C@H](CO)N(Cc1ccccc1)C[C@]13CCN(CC1)C(=O)c1ccccc1F,inactive
16,COCC(=O)Nc1ccc2c(c1)OC[C@@H](C)N(C(=O)c1ccccc1F)C[C@@H](C)[C@H](OC)CN(C)C2=O,inactive
17,C[C@H](CO)N1C[C@H](C)[C@H](CN(C)C(=O)Nc2cccc3ccccc23)Oc2ncc(C#Cc3ccc(F)cc3)cc2C1=O,inactive
18,C[C@H](O)C#Cc1ccc2c(c1)O[C@H](CN(C)C(=O)Cc1ccccn1)[C@H](C)CN([C@H](C)CO)S2(=O)=O,inactive
19,COCC#Cc1cnc2c(c1)C(=O)N([C@@H](C)CO)C[C@H](C)[C@@H](CN(C)S(=O)(=O)c1cccc(OC)c1)O2,inactive
20,Cc1noc(C)c1S(=O)(=O)Nc1cccc2c1O[C@@H](CN(C)Cc1ccc(-c3ccccc3)cc1)[C@@H](C)CN([C@H](C)CO)C2=O,inactive

row,SMILES,cytotoxicity call
1,CN(C)CC(=O)N[C@@H]1C=C[C@H](CC(=O)NCCN2CCCCC2)O[C@H]1CO,inactive
2,O=C(C[C@@H]1C[C@H]2c3cc(NS(=O)(=O)c4ccc(F)cc4)ccc3O[C@H]2[C@H](CO)O1)NCCc1ccccc1,inactive
3,Cc1noc(C)c1NC(=O)N(C)C[C@@H]1Oc2ccc(NC(=O)NC(C)C)cc2CC(=O)N([C@H](C)CO)C[C@@H]1C,inactive
4,C[C@@H](NC(=O)C[C@@H]1CC[C@@H](NC(=O)CN2CCOCC2)[C@H](CO)O1)c1ccccc1,inactive
5,COc1ccc(NC(=O)Nc2ccc3c(c2)C(=O)N([C@H](C)CO)C[C@H](C)[C@@H](CN(C)C(=O)Nc2cccc4ccccc24)O3)cc1,inactive
6,Cc1ccc(S(=O)(=O)N(C)C[C@@H]2Oc3c(NC(=O)Nc4ccc(C(F)(F)F)cc4)cccc3C(=O)N([C@@H](C)CO)C[C@H]2C)cc1,inactive
7,Cc1ccc(S(=O)(=O)Nc2ccc3c(c2)C(=O)N([C@@H](C)CO)C[C@H](C)[C@H](CN(C)C(=O)Cc2ccccc2)OCCCC[C@@H](C)O3)cc1,inactive
8,CCOC(=O)N1CCN(C[C@@H](O)Cn2c(=O)c3c(ncn3C)n(C)c2=O)CC1,inactive
9,C[C@@H]1CN([C@H](C)CO)C(=O)c2cc(NS(C)(=O)=O)ccc2O[C@H]1CN(C)C(=O)NC1CCCCC1,inactive
10,C[C@@H]1CCCCO[C@@H](CN(C)S(=O)(=O)c2ccc(Cl)cc2)[C@H](C)CN([C@H](C)CO)C(=O)c2cc(NC(=O)c3ccccc3)ccc2O1,inactive
11,CCCNC(=O)c1cc2c(c(-c3cccc(-c4cc5ccccc5o4)c3)n1)[C@@H](CCO)N(C(=O)NC(C)C)C2,inactive
12,CO[C@@H]1CN(C)C(=O)c2ccc(NC(=O)NC(C)C)cc2OC[C@@H](C)N(Cc2ccc(-c3ccccn3)cc2)C[C@H]1C,inactive
13,C[C@@H]1CN([C@H](C)CO)S(=O)(=O)c2ccc(C#CCN(C)C)cc2O[C@@H]1CN(C)Cc1ccccn1,inactive
14,C[C@@H]1CN([C@@H](C)CO)C(=O)c2cc(NC(=O)CCCCCC(=O)Nc3ccccc3N)ccc2O[C@H]1CN(C)S(=O)(=O)c1cn(C)cn1,inactive
15,COCC(=O)N1C[C@@H](C)[C@@H](OC)CN(C)C(=O)c2ccc(NC(=O)c3cc(C)on3)cc2OC[C@@H]1C,inactive
16,COc1ccc(NC(=O)N(C)C[C@@H]2OCCCC[C@@H](C)Oc3ccc(NS(=O)(=O)c4cccs4)cc3C(=O)N([C@H](C)CO)C[C@H]2C)cc1,inactive
17,CCCN(C)C[C@H]1OCCCC[C@@H](C)Oc2ccc(NC(=O)Nc3ccc4c(c3)OCO4)cc2C(=O)N([C@H](C)CO)C[C@@H]1C,inactive
18,CN(C)CC(=O)N1[C@@H]2c3ccc(C4=CCCC4)c(=O)n3C[C@H]1[C@H](CO)[C@H]2C(=O)NCC1CC1,inactive
19,Cc1ccc(S(=O)(=O)N(C)C[C@H]2Oc3c(NS(=O)(=O)c4cccs4)cccc3C(=O)N([C@H](C)CO)C[C@@H]2C)cc1,inactive
20,C[C@@H]1CCCCO[C@@H](CN(C)Cc2ccc(Cl)c(Cl)c2)[C@@H](C)CN([C@@H](C)CO)C(=O)c2cc(NS(=O)(=O)c3ccc(Cl)cc3)ccc2O1,active
